Data: PubChem BioAssay AID652104 (National Center for Advancing Translational Sciences (NCATS), 2013)
The campaign covered roughly 410,000 compounds. About 7,200 (1.8%) were called active. The inconclusive results got no clear call from the source; some entries with a clear call stand among them for comparison. Calls follow the shape of the dose curve; as a rule, active = well fitted activation curve with a large enough effect; inconclusive = small, poorly fitted or top-dose-only effect, or another doubt; inactive = no such curve, though single readings can be large or run the other way. Potencies of inconclusive entries are left out as doubtful fits.

Experiment: qHTS of TDP-43 Inhibitors; also: nearly all actives have a fitted effect of over 50% in size; as to growth rescue (activation): % of control where 0% means no effect
Settings: TDP-43 expressing yeast growth rescue, BacTiter-Glo, 24 h; growth rescue (activation): at 46.1 µM (top of the series) unless noted
Summary of the method: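 Cell-based yeast growth screen: TDP-43 expression induced in galactose, inoculum OD600=0.02 after raffinose pregrowth to mid-log. Read-out BacTiter-Glo luminescence at 24 hr, 30 deg C; inhibition of toxicity seen as signal increase.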
Potency is read from the fitted curve at half-maximal effect; tags tell the direction and shape of the fitted curve.

Compound | Potency | growth rescue (activation)
O=C(CSCc1ccccc1)N1CCN(S(=O)(=O)c2cccc(F)c2)CC1 | inconclusive [activator, partial curve] | 
CCOC(=O)c1cccnc1SCc1cc(=O)n2ccccc2n1 | inconclusive [activator, single point] | 
COc1ccccc1C(=O)Nc1ccc(Br)cc1C | active: 17.8 µM | 
COc1ccc(OCc2ccc(-c3nc(C#N)c(NCc4ccc(F)cc4)o3)o2)cc1 | inactive | 
COc1cccc(OCc2cc(C(=O)N3CCN(C(=O)c4ccco4)CC3)no2)c1 | inconclusive [activator, single point] | 
COC(=O)C1=C(C)NC(=O)/C1=C\c1cccs1 | inconclusive [activator, partial curve] | 
O=C(NCc1cccs1)C1CC(=O)N(c2ccccc2)C1 (stereo unspecified) |  | inconclusive: 27.6% [activator]
C=CC[C@H](CC(=O)N[C@H](CO)Cc1ccccc1)C(=O)N[C@H](COC(=O)[C@@H](CC=C)CC(=O)OC(C)(C)C)Cc1c[nH]c2ccccc12 | inactive | 
COCC(=O)N1C[C@H]2CON(C)[C@H]2C[C@H]1c1cccc(-c2ccccc2OC)c1 | inactive | 
CCc1ccc(NC(=O)COC(=O)/C=C/c2ccco2)cc1 | inconclusive [activator, partial curve] | 
CCOC(=O)/C(=C\c1ccccc1)C(=O)c1cc(C(C)=O)c(Nc2ccccc2)s1 | inactive | 
CCn1c(CNC(=O)c2cccc(C)c2)nnc1SCC(=O)Nc1cccc(OC)c1 | inactive | 
COc1cccc2cc(C(=O)Nc3ccccc3C)/c(=N/O)oc12 | inconclusive [activator, single point] | 
Cc1c(NS(=O)(=O)c2cccs2)cccc1-c1nc2cccnc2s1 | active: 22.4 µM | 
N#CCSc1nn(-c2ccc(F)cc2)c(=S)s1 | active: 15.8 µM | 
COc1ccc(NC(=O)CCCS(=O)(=O)c2nc(-c3ccccc3OC)cc(C(F)(F)F)n2)c(OC)c1 | inconclusive [activator, single point] | 
CC(C)C(=O)Nc1nnc(SCc2cccc(F)c2)s1 | inconclusive [activator, partial curve] | 
CC1(C)C(=O)N(c2ccccc2Cl)C(=O)c2ccccc21 | inconclusive [activator, single point] | 
CCCCN(C)C(=O)c1cc2cc3ccc(OC)cc3nc2o1 | active: 15.8 µM | 
Cc1[nH]c2ccccc2c1C(=O)C(C)Sc1nnc(C2CC2)o1 (stereo unspecified) | inconclusive [activator, partial curve] | 
CCOC(=O)c1c(S(=O)(=O)NCC(=O)Nc2cccc(SC)c2)c(C)n(C)c1C | inactive | 
Cn1c(SCC(=O)N2CCOCC2)ncc(C(=O)Nc2ccc(F)cc2)c1=O | inconclusive [activator, single point] | 
COc1ccccc1CNC(=O)c1cc(-c2cc(F)ccc2OC)n[nH]1 | active: 22.4 µM | 

Compound | Potency | growth rescue (activation)
Cc1ccc(N=Nc2ccc(O)c3ncccc23)cc1C | active: 28.2 µM | 
COc1cccc(COC(=O)C2CCN(C(=O)c3ccc(F)cc3)CC2)c1OC | inconclusive [activator, single point] | 
CCCCC1=NN(C(=O)c2ccncc2)C(O)(C(F)(F)F)C1 (stereo unspecified) | inconclusive [activator, single point] | 
N#CC1=C2SCN(c3ccccc3)CN2C(=O)CC1c1ccccc1Cl (stereo unspecified) | inconclusive [activator, single point] | 
Cc1ccc(C)c(C(=O)CN2Cc3ccccc3C2=O)c1 | inconclusive [activator, single point] | 
O=C(NCc1ccccc1C(F)(F)F)C1CC(c2ccccc2C(F)(F)F)=NO1 (stereo unspecified) | inactive | 
COc1cccc(-n2ccnc2SCC(=O)Nc2cccc3ccccc23)c1 | active: 15.8 µM | 
Cc1[nH]n(C(N)=S)c(=O)c1N=Nc1cccc([N+](=O)[O-])c1C | inconclusive [activator, partial curve] | 
O=C1Nc2cc(C(=O)N3CCc4ccccc4C3)ccc2S/C1=C\c1ccccc1 | inconclusive [activator, partial curve] | 
CCc1cccc(C)c1NC(=O)C1CCN(S(=O)(=O)c2cc(Br)cc3c2N(C(C)=O)CC3)CC1 | inconclusive [activator, full curve] | 
Cc1ccc(CNC(=O)C2CCCN(c3nc4ccccc4n4cccc34)C2)cc1 (stereo unspecified) | inactive | 
NC(N)=N/N=C/c1cc([N+](=O)[O-])ccc1O | inconclusive [activator, partial curve] | 
O=C1C2C3CCC(C3)C2C(=O)N1CNc1ccccc1 (stereo unspecified) | inconclusive [activator, single point] | 
COc1ccc(C(C)NC(=O)CN(c2cc(OC)ccc2OC)S(=O)(=O)c2ccccc2)cc1 (stereo unspecified) | inactive | 
Cc1ccc(S(=O)(=O)Nc2ccccc2CNc2ccccn2)cc1 | inactive | 
C=CC[C@H](CC(=O)NCCO)C(=O)N[C@@H](COC(=O)[C@@H](CC=C)Cc1ccc(F)cc1)Cc1ccccc1 | inactive | 
COc1ccccc1C(=O)Nc1nsc(-c2ccccc2)n1 | active: 12.6 µM | 
O=C(Nc1cccnc1)c1cc2cc(Br)ccc2oc1=O | inconclusive [activator, full curve, poor fit] | 
Cc1nc2ccccc2n1C(c1cccnc1)c1nc2ccccc2[nH]1 (stereo unspecified) | inconclusive [activator, full curve, poor fit] | 
N#C/C(=C/c1ccc(O)cc1)c1nc(-c2ccc(-c3ccccc3)cc2)cs1 | inconclusive [activator, full curve, poor fit] | 
c1ccc2nc3c(cc2c1)CCCCC3 | inconclusive [activator, single point] | 
COc1cccc(NC(=O)C2C(c3ccccc3)C2(Cl)Cl)c1 (stereo unspecified) | inconclusive [activator, partial curve] | 
Cc1nc(-c2cccc(F)c2)sc1CCNC(=O)Cc1ccc(F)cc1 | inconclusive [activator, single point] | 
